# Reference: the BET-seq Pho4 binding data (Le et al. 2018)
# Some of the results follow. These are noisy estimates, calculated here from bound and input reads.
# Biological target: T1, Pho4 (S. cerevisiae) (UniProt P07270)
# T1 sequence: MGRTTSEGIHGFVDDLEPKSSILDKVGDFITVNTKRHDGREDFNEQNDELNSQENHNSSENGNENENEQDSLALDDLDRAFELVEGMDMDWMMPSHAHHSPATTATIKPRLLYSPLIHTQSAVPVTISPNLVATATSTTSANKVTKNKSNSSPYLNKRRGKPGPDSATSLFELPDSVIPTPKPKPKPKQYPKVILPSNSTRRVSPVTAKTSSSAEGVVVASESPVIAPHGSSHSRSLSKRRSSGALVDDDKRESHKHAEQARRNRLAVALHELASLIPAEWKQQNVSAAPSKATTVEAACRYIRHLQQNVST
# Assay: relative binding free energy (BET-seq); higher = weaker binding
# Conditions: reference: library average
row,Sequence,relative binding free energy [kcal/mol]
1,ATAGTCACGTGTAGGC,0.15
2,ATGGGCACGTGTGTTG,-0.1
3,TCGTACACGTGTTGTA,0.11
4,AAGGTCACGTGATTGA,0.08
5,ATTGGCACGTGGGCTC,-0.06
6,ATGTGCACGTGTTACG,-0.04
7,TTGCGCACGTGTTTTG,-0.17
8,GTTCGCACGTGATGTT,0.14
9,AGTGGCACGTGGAATG,-0.04
10,AGATGCACGTGAAGTT,0.25
11,TAGGTCACGTGTCGGC,0.03
12,TGAGCCACGTGGGAGT,-0.08
13,GTCTTCACGTGTTGGT,0.31
14,AGGTTCACGTGTTTGG,0.26
15,ATTTGCACGTGTCTAA,0
16,TTAGCCACGTGTGTTG,-0.08
17,TGTAGCACGTGATCTA,0.12
18,TACGGCACGTGAGTGA,0.15
19,TTTATCACGTGCTTCT,0.11
20,AGAGGCACGTGTTGAT,-0.07
21,GTTCTCACGTGATGTA,0.4
22,GGTGCCACGTGAGTGA,0.19
23,TTTCTCACGTGTCGTT,0.27

row,Sequence,relative binding free energy [kcal/mol]
1,GGTGGCACGTGGAGAT,-0.02
2,CGTGGCACGTGGGCGT,-0.25
3,TTTGTCACGTGCTCGG,0.04
4,CGGGACACGTGGCAGG,-0.06
5,GTAGTCACGTGCGTAA,0.06
6,AGTCTCACGTGTCATG,0.27
7,GGGTGCACGTGTAACT,0.13
8,AGTTGCACGTGCGTAG,-0.04
9,GTCTTCACGTGAGGGT,0.4
10,AGATACACGTGTTTTG,-0.06
11,TCTGGCACGTGATGTT,-0.06
12,GGGTACACGTGTTTGC,0.18
13,GAAGACACGTGTAGGG,0.02
14,CTATTCACGTGTGCGT,0.25
15,GTGAGCACGTGTTCAT,-0.04
16,TGTTTCACGTGACTTT,0.32
17,CGTTGCACGTGGAGAT,0.02
18,GGTCGCACGTGAAGTA,0.25
19,GGGTTCACGTGGAGGG,0.39
20,GGGACCACGTGGTAGG,-0.07
21,TCGATCACGTGTGGGG,0.23
22,TTGGACACGTGGTGTA,-0.06
23,CCAGGCACGTGGGGAT,-0.17

row,Sequence,relative binding free energy [kcal/mol]
1,GGGAACACGTGGAGAG,-0.03
2,TTGAACACGTGGTTGT,0.09
3,ATGTTCACGTGGAATT,0.17
4,TTAAACACGTGCGTGT,0.05
5,TGATGCACGTGACAGT,0.03
6,ACTGGCACGTGTAGTG,-0.19
7,TGAGGCACGTGGCACG,-0.16
8,ATGGTCACGTGATTCT,0.31
9,ATAGGCACGTGGCTTG,-0.15
10,AGTTCCACGTGTTTAG,0.07
11,AATGACACGTGGGCGG,-0.24
12,TTAAACACGTGTTGAG,0.01
13,TTGATCACGTGTGTAA,0.2
14,ATTGGCACGTGCGATG,-0.14
15,AGGGTCACGTGCAGGC,-0.02
16,CGTCGCACGTGCTGGT,-0.03
17,GTGTGCACGTGTGATT,0.2
18,TGGTTCACGTGATGTC,0.37
19,GTCGTCACGTGTGATT,0.19
20,CTTTCCACGTGGTTTG,0.04
21,TTATGCACGTGCGGAG,-0.07
22,GGGTACACGTGGCGGT,0.06
23,AAATTCACGTGCTGGG,0.15

row,Sequence,relative binding free energy [kcal/mol]
1,TTCGTCACGTGTGGAG,0.09
2,ATAGTCACGTGATAAT,0.29
3,AAGGGCACGTGTCATG,-0.15
4,GACTGCACGTGTAGTG,0.11
5,GGAGGCACGTGGTCGT,-0.17
6,CTGAGCACGTGTATGG,0.02
7,AGACACACGTGGGTTG,-0.2
8,ACTGTCACGTGAGGGA,0.31
9,AGTATCACGTGTATTA,0.11
10,TTGATCACGTGGTGTA,0.05
11,GTCGTCACGTGGCGGG,0.02
12,TGTGGCACGTGAGTTT,0.14
13,TTTTCCACGTGTTTTT,0.07
14,TGGTTCACGTGTGGCA,0.23
15,TATTTCACGTGTCAGC,0.36
16,ATTGGCACGTGTAAGT,-0.02
17,GGCGACACGTGTGTGC,0.08
18,TTATTCACGTGCTCGT,0.18
19,TTTTTCACGTGCGGGT,0.4
20,TACGCCACGTGAGGGT,0.07
21,TAAGGCACGTGTTAAG,-0.06
22,AGTCTCACGTGAGTAT,0.44
23,GGAATCACGTGGATAT,0.21

row,Sequence,relative binding free energy [kcal/mol]
1,AGAGTCACGTGTAAGT,0.28
2,GGTGACACGTGGTAAG,-0.05
3,GGGCGCACGTGGGCAT,-0.22
4,AGCTGCACGTGGGTGA,-0.26
5,TTGTCCACGTGTTGAT,0.1
6,GGTGTCACGTGGGCCG,-0.04
7,ATGATCACGTGTCGTG,0.2
8,CGAGGCACGTGGGGAC,-0.06
9,CATTGCACGTGTCGTT,0.09
10,CTCTGCACGTGGGTAG,-0.11
11,TAGGTCACGTGGGATT,0.08
12,AGGGACACGTGAAATT,0.39
13,CTATTCACGTGATGTA,0.26
14,TGGGGCACGTGAAGGC,0.1
15,CTATTCACGTGTTATG,0.21
16,TAGTGCACGTGGGTAA,-0.07
17,CAGTGCACGTGTGTGT,0
18,ATTATCACGTGACGCT,0.44
19,TTGGGCACGTGTGTCA,0.03
20,TGGTGCACGTGTTGGA,0.06
21,GGGTACACGTGGAATG,0.18
22,GAGCGCACGTGATGTT,0.09
23,GGCTTCACGTGGGGCT,0.26
